We go through 45 compounds from publication PMC4336329 (PLoS ONE, 2015).

The campaign covered roughly 310,000 compounds. About 2,200 (0.71%) showed an effect of 50% or more. Effects have a minus sign here. The list shows a part of the results.

The target in the experiment is human ether-à-go-go-related gene (hERG) potassium channel (human, UniProt Q12809). In words: primary screen, population patch clamp on CHO cells stably expressing hERG.
Chain of human ether-à-go-go-related gene (hERG) potassium channel (Q12809 whole entry, looked up): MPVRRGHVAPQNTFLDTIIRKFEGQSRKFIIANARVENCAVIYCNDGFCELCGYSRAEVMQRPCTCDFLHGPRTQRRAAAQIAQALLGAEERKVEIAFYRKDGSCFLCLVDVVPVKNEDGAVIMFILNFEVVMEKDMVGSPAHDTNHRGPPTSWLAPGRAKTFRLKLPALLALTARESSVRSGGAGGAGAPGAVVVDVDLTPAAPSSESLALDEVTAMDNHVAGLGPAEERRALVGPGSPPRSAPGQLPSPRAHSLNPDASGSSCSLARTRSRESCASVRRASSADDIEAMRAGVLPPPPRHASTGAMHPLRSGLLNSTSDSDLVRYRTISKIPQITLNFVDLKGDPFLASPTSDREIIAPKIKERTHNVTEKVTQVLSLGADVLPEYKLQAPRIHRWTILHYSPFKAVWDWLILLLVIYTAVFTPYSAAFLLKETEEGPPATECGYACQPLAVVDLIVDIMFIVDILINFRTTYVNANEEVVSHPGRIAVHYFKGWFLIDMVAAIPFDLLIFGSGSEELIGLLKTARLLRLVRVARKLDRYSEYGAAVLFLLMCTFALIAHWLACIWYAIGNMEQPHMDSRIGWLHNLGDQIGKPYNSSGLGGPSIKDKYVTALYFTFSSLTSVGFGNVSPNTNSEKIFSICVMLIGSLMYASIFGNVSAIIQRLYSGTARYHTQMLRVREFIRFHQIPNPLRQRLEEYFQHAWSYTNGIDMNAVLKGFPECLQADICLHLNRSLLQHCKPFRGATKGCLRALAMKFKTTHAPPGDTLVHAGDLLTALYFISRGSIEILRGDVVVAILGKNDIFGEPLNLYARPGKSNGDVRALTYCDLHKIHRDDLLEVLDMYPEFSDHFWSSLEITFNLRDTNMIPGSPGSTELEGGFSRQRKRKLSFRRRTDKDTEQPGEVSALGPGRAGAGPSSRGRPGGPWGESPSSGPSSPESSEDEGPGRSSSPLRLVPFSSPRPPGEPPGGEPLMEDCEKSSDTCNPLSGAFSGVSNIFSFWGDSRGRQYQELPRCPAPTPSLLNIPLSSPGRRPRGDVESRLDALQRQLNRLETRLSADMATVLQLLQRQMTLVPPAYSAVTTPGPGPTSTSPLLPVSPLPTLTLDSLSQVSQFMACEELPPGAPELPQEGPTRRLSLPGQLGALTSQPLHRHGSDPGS
For `Cc1ccc(S(=O)(=O)CC(=O)N2CC(C)OC(C)C2)cc1` (stereo not drawn), the “hERG current change (%, negative = inhibition) at 1uM” value is 0.13%. With `S=C(Nc1ccccc1Cl)N1CCCCC1`, the “hERG current change (%, negative = inhibition) at 1uM” value is listed as 19.3%.

Take `Cc1cccc(OCC(=O)NC(C)C(=O)N/N=C/c2c(OCc3ccccc3)ccc3ccccc23)c1` (stereo not drawn): the “hERG current change (%, negative = inhibition) at 1uM” value turned out to be 1.68%. As for `COC(=O)c1ccc(-n2nnnc2SCC(=O)Nc2ccccc2OC)cc1`, the figure is 10.6%; as for `COc1cc(CNCc2cccs2)ccc1OCc1ccccc1.Cl`, -5.06%. Turning to `Cc1ccc2occ(CN3CCN(c4ccccc4)CC3)c(=O)c2c1`, the “hERG current change (%, negative = inhibition) at 1uM” value is given as -6.76%. With `CCc1ccc(-n2cc(-c3ccc(F)cc3)[n+]3c2SCCC3)cc1.[Br-]`, the “hERG current change (%, negative = inhibition) at 1uM” value was -31.3%. As for `CC(C)CNS(=O)(=O)c1cc2c3c(c1)CC(=O)N3CCC2`, the figure is 13.5%. On to `O=c1cc(CO)occ1OCc1cccc(F)c1`, for which the “hERG current change (%, negative = inhibition) at 1uM” value was found to be 5.88%.

For `O=c1c2cn[nH]c2[nH]c(=S)n1-c1ccccc1F`, the “hERG current change (%, negative = inhibition) at 1uM” value was found to be 22.4%. On to `Cc1ccc(S(=O)(=O)N2CCN(C(=O)COC(=O)COc3ccccc3)CC2)cc1`, for which the “hERG current change (%, negative = inhibition) at 1uM” value came out at 29.9%. As for `CSc1ccccc1OCc1cc(C(=O)NC(C)Cn2cncn2)no1` (stereo not drawn), the “hERG current change (%, negative = inhibition) at 1uM” value turned out to be 7.43%. Take `CSCC[C@H](NC(=O)OC(C)(C)C)c1nnc(SCc2ccccc2)o1`: the “hERG current change (%, negative = inhibition) at 1uM” value is 9.97%. Regarding `c1ccc2c(CN3CCSCC3)cccc2c1`, the “hERG current change (%, negative = inhibition) at 1uM” value is listed as 9.87%. As to `CC(C)OC(=O)c1ccc(NC(=O)C2C3CC4OC(=O)C2C4C3)cc1` (stereo not drawn), the “hERG current change (%, negative = inhibition) at 1uM” value stood at 11.8%.

For the compound `CCCCn1c(SCC(=O)N2CCCC2)nnc1-c1ccccc1`, the “hERG current change (%, negative = inhibition) at 1uM” value is 16.1%. For `Cc1cc(C)c2c(c1)cc(C)c1nnc(SCC(=O)Nc3cc(C)on3)n12`, the “hERG current change (%, negative = inhibition) at 1uM” value is given as 5.07%.

In the case of `COc1ccc(C(=O)NCCS(=O)(=O)N2CCCC2)cc1`, the “hERG current change (%, negative = inhibition) at 1uM” value is listed as 4.93%. `CC(NC(=O)CCOc1ccccc1)c1ccccc1` (stereo not drawn): the “hERG current change (%, negative = inhibition) at 1uM” value was determined as 10.9%. `CC1CCN(Cc2nc(Cl)c3c4c(sc3n2)CCC4)CC1`: the “hERG current change (%, negative = inhibition) at 1uM” value is on record as 2.99%. For the compound `CCc1ccccc1NC(=O)CN(c1cccc(OC)c1)S(C)(=O)=O`, the “hERG current change (%, negative = inhibition) at 1uM” value was found to be 15.5%. Regarding `Cc1cccc(N2C(=O)c3cccc4cccc(c34)C2=O)c1`, the “hERG current change (%, negative = inhibition) at 1uM” value was determined as 19.6%. For `CC(C)N1C(=S)SC2CS(=O)(=O)C=C21` (stereo not drawn), the “hERG current change (%, negative = inhibition) at 1uM” value was 12.3%.

On to `CCCCC(CCC(=O)Nc1cc([N+](=O)[O-])ccc1O)C(=O)O` (stereo not drawn), for which the “hERG current change (%, negative = inhibition) at 1uM” value is 17.7%. For `CC(C)COc1cccc(-c2cc(C(=O)Nc3ccon3)c3ccccc3n2)c1`, the “hERG current change (%, negative = inhibition) at 1uM” value turned out to be 21.1%. Take `O=c1cc(O)n(-c2ccc(F)cc2)c(=S)[nH]1`: the “hERG current change (%, negative = inhibition) at 1uM” value turned out to be 13.9%. Next, `CC(=O)N(CCC1(c2ccc(C)cc2)CCOC(C(C)C)C1)Cc1ccco1` (stereo not drawn): 13.1%. Next, `S=C(NCc1cccnc1)Nc1cccc2ccccc12`: 0.343%; `Cc1onc(C(=O)N2CCN(C(c3ccccc3)c3ccccc3)CC2)c1[N+](=O)[O-]`: 2.68%.

Consider `COc1ccc(OCC(=O)Nc2ccc(OC)c(S(=O)(=O)N3CCCCC3)c2)cc1`, for which the “hERG current change (%, negative = inhibition) at 1uM” value is -2.82%. As for `O=C(Cc1ccccc1)N/N=C/c1ccc([N+](=O)[O-])s1`, the figure is 12.5%.

Take `S=C(NCCc1ccccn1)Nc1cccc(Cl)c1`: the “hERG current change (%, negative = inhibition) at 1uM” value was 10.1%.

Consider `Cc1cccc(CS(=O)(=O)Cc2ccc(C(=O)NC3CCCC3)o2)c1`, for which the “hERG current change (%, negative = inhibition) at 1uM” value was determined as 10.6%.

With `CCOC(=O)CSc1nc2sc3c(c2c(=O)n1-c1ccc(OCC)cc1)CCN(C)C3`, the “hERG current change (%, negative = inhibition) at 1uM” value was -1.09%.

Turning to `Cc1cccc(C(=O)NCC(c2ccco2)N(C)C)c1` (stereo not drawn), the “hERG current change (%, negative = inhibition) at 1uM” value is on record as 8.88%.

As to `NC(=O)c1cc(S(=O)(=O)NC2CCCCC2)co1`, the “hERG current change (%, negative = inhibition) at 1uM” value turned out to be 1.43%. In the case of `Cc1cccc(NC(=O)CCNS(=O)(=O)c2ccc(Cl)cc2)c1`, the “hERG current change (%, negative = inhibition) at 1uM” value came out at 12.6%.

With `CCOc1cc(C(=O)Nc2ccc(N3CCN(C(C)=O)CC3)cc2)cc(OCC)c1OCC`, the “hERG current change (%, negative = inhibition) at 1uM” value was 11.1%. Turning to `COc1ccc2c(C)c(C(=O)N3CCN(Cc4ccccc4)CC3)oc2c1.Cl`, the “hERG current change (%, negative = inhibition) at 1uM” value amounted to 1.27%. Regarding `O=C(CN1C(=O)NC2(CCCC2)C1=O)Nc1ccc(F)c(F)c1F`, the “hERG current change (%, negative = inhibition) at 1uM” value is 2.19%. For the compound `COc1cc2c(cc1OC)C(c1ccccc1)N(C(=O)c1cccc(S(C)(=O)=O)c1)CC2` (stereo not drawn), the “hERG current change (%, negative = inhibition) at 1uM” value worked out at 4.8%. In the case of `Cc1ccc(N2C(=O)CC(Sc3nccc(C)n3)C2=O)cc1` (stereo not drawn), the “hERG current change (%, negative = inhibition) at 1uM” value worked out at 11.4%. Consider `CC(C)(C)NC(=O)/C(=C\c1cccnc1)NC(=O)c1ccco1`, for which the “hERG current change (%, negative = inhibition) at 1uM” value is on record as 7.61%. As for `Cc1nn(-c2ccccc2)nc1C(=O)Oc1cc(C(F)(F)F)nn1-c1ccccc1`, the “hERG current change (%, negative = inhibition) at 1uM” value is 8.96%.

As to `Cc1ccc(=O)n(C(C(=O)NCc2ccco2)C(=O)c2ccc(F)cc2)c1` (stereo not drawn), the “hERG current change (%, negative = inhibition) at 1uM” value is listed as 6.1%.
